Experimental data reported in the supplement of paper PMC8728848.
Some of the results follow.

Legend:
Assay in all cases: glycan array binding signal (z-score within array); higher = stronger binding
Conditions in all cases: glycan notation: IUPAC condensed, linker removed
[1] = molecular target: GlcNAc(b1-4)GlcNAc(b1-4)GlcNAc(b1-4)GlcNAc(b1-4)GlcNAc(b1-4)GlcNAc
How it was run: (§1)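 Glycan array data were curated from 3228 arrays in the Consortium for Functional Glycomics database and kept only where the protein sequence was available. Glycan names were converted to IUPAC-condensed notation, and columns mapping to the same glycan were averaged. The binding signal is a within-array Z-score, averaged across arrays of the same protein sequence at different concentrations or buffers and across linkers. Negative Z-scores can be read as non-binding.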

[2] = molecular target: GlcNAc(b1-4)[GlcNAc(b1-6)]GalNAc
How it was run: as §1

[3] = molecular target: GlcNAc(b1-6)Gal(b1-4)GlcNAc
How it was run: as §1

GlcNAc(b1-6)GalNAc = molecular target: GlcNAc(b1-6)GalNAc
How it was run: as §1

[4] = molecular target: GlcNAc6S(b1-3)Gal(b1-4)GlcNAc
How it was run: as §1

Kdn(a2-3)Gal(b1-3)GalNAc = molecular target: Kdn(a2-3)Gal(b1-3)GalNAc
How it was run: as §1

Kdn(a2-3)Gal(b1-3)GlcNAc = molecular target: Kdn(a2-3)Gal(b1-3)GlcNAc
How it was run: as §1

Kdn(a2-3)Gal(b1-4)Glc = molecular target: Kdn(a2-3)Gal(b1-4)Glc
How it was run: as §1

Kdn(a2-3)Gal(b1-4)GlcNAc = molecular target: Kdn(a2-3)Gal(b1-4)GlcNAc
How it was run: as §1

[5] = molecular target: Kdn(a2-3)Gal(b1-4)[Fuc(a1-3)]GlcNAc
How it was run: as §1

Kdn(a2-6)Gal(b1-4)GlcNAc = molecular target: Kdn(a2-6)Gal(b1-4)GlcNAc
How it was run: as §1

[6] = molecular target: Man(a1-2)Man(a1-2)Man(a1-3)Man
How it was run: as §1

[7] = molecular target: Man(a1-2)Man(a1-2)Man(a1-6)[Man(a1-3)]Man
How it was run: as §1

Man(a1-2)Man(a1-3)Man = molecular target: Man(a1-2)Man(a1-3)Man
How it was run: as §1

[8] = molecular target: Man(a1-2)Man(a1-3)[Man(a1-2)Man(a1-6)]Man
How it was run: as §1

[9] = molecular target: Man(a1-2)Man(a1-3)[Man(a1-2)Man(a1-6)]Man(a1-6)[Man(a1-2)Man(a1-2)Man(a1-3)]Man
How it was run: as §1

[10] = molecular target: Man(a1-2)Man(a1-3)[Man(a1-2)Man(a1-6)]Man(a1-6)[Man(a1-2)Man(a1-2)Man(a1-3)]Man(b1-4)GlcNAc(b1-4)GlcNAc
How it was run: as §1

[11] = molecular target: Man(a1-2)Man(a1-3)[Man(a1-6)]Man(a1-6)[Man(a1-2)Man(a1-3)]Man(b1-4)GlcNAc(b1-4)GlcNAc
How it was run: as §1

[12] = molecular target: Man(a1-2)Man(a1-6)[Man(a1-3)]Man(a1-6)[Man(a1-2)Man(a1-2)Man(a1-3)]Man
How it was run: as §1

[13] = molecular target: Man(a1-2)Man(a1-6)[Man(a1-3)]Man(a1-6)[Man(a1-2)Man(a1-2)Man(a1-3)]Man(b1-4)GlcNAc(b1-4)GlcNAc
How it was run: as §1

Man(a1-3)[Man(a1-6)]Man = molecular target: Man(a1-3)[Man(a1-6)]Man
How it was run: as §1

[14] = molecular target: Man(a1-3)[Man(a1-6)]Man(a1-6)[Man(a1-2)Man(a1-3)]Man(b1-4)GlcNAc(b1-4)GlcNAc
How it was run: as §1

[15] = molecular target: Man(a1-3)[Man(a1-6)]Man(a1-6)[Man(a1-3)]Man
How it was run: as §1

[16] = molecular target: Man(a1-3)[Man(a1-6)]Man(a1-6)[Man(a1-3)]Man(b1-4)GlcNAc(b1-4)GlcNAc
How it was run: as §1

[17] = molecular target: Man(a1-3)[Man(a1-6)]Man(b1-4)GlcNAc(b1-4)GlcNAc
How it was run: as §1

[18] = molecular target: Man(a1-3)[Man(a1-6)]Man(b1-4)GlcNAc(b1-4)[Fuc(a1-6)]GlcNAc
How it was run: as §1

Man(a1-6)Man = molecular target: Man(a1-6)Man
How it was run: as §1

Man(b1-4)GlcNAc = molecular target: Man(b1-4)GlcNAc
How it was run: as §1

MurNAc(b1-4)GlcNAc = molecular target: MurNAc(b1-4)GlcNAc
How it was run: as §1

Neu5Ac(a2-3)Gal = molecular target: Neu5Ac(a2-3)Gal
How it was run: as §1

[19] = molecular target: Neu5Ac(a2-3)Gal(b1-3)GalNAc
How it was run: as §1

[20] = molecular target: Neu5Ac(a2-3)Gal(b1-3)GalNAc(b1-3)Gal(a1-4)Gal(b1-4)Glc
How it was run: as §1

[21] = molecular target: Neu5Ac(a2-3)Gal(b1-3)GalNAc(b1-4)[Neu5Ac(a2-3)]Gal(b1-4)Glc
How it was run: as §1

[22] = molecular target: Neu5Ac(a2-3)Gal(b1-3)GalNAc(b1-4)[Neu5Ac(a2-8)Neu5Ac(a2-3)]Gal(b1-4)Glc
How it was run: as §1

[23] = molecular target: Neu5Ac(a2-3)Gal(b1-3)GalNAc6S
How it was run: as §1

[24] = molecular target: Neu5Ac(a2-3)Gal(b1-3)GlcNAc
How it was run: as §1

[25] = molecular target: Neu5Ac(a2-3)Gal(b1-3)GlcNAc(b1-2)Man
How it was run: as §1

B1: PX14343H-pdi-506-26-506 (Parabacteroides distasonis) (protein)
chain: QPTGTMTTDSKLTSKESALALTNSAYLKNTVFNKMTPGWGCNTILLLEYMTGKATSENSQSNYKDFQDLLVSDRSLYIEDWWQDCYAGIANCNLALQKLGEFENLDASLVNGYMAEVKFMRALYYFYLVRIFGDVPKITTVQSELGELQVSRAPVKEIYDEIIIPDLLEAEQSDLAFSDHTGRVSMGAVKALLADVYLTYAGYPLQGGKSYYAESAKRSLEVIKSNEYTLFTDYESLRLPSQNNKGEFIYQVQFSLNKRHNESVRIFLPSRSGISAYDLEYGSLIPTKEFVESFEKGDKRTEEKQYFFTNYKGHPSKFSPGAAELEFMDLNGYYIYKFFDQVAVDNTAKSDLNWSVYRYTDVLLMYAEAQVNADGTPNQQSIDIVNQIRGRAGLAPFKQTNASAFLEEVWDQRYFDLCYENKMWFDMLRTRKIRDDKSGEYVDFIGYKTNWGKVYTETQLLFPIPLSERQANPNLTQNQGY
- glycan array binding signal (z-score) [1]: -0.409
- glycan array binding signal (z-score) [2]: 0.217
- glycan array binding signal (z-score) [3]: -0.323
- glycan array binding signal (z-score) (GlcNAc(b1-6)GalNAc): -0.314
- glycan array binding signal (z-score) [4]: -0.337
- glycan array binding signal (z-score) (Kdn(a2-3)Gal(b1-3)GalNAc): -0.106
- glycan array binding signal (z-score) (Kdn(a2-3)Gal(b1-3)GlcNAc): -0.225
- glycan array binding signal (z-score) (Kdn(a2-3)Gal(b1-4)Glc): -0.024
- glycan array binding signal (z-score) (Kdn(a2-3)Gal(b1-4)GlcNAc): -0.438
- glycan array binding signal (z-score) [5]: -0.169
- glycan array binding signal (z-score) (Kdn(a2-6)Gal(b1-4)GlcNAc): -0.278
- glycan array binding signal (z-score) [6]: -0.281
- glycan array binding signal (z-score) [7]: -0.422
- glycan array binding signal (z-score) (Man(a1-2)Man(a1-3)Man): -0.483
- glycan array binding signal (z-score) [8]: -0.49
- glycan array binding signal (z-score) [9]: -0.4
- glycan array binding signal (z-score) [10]: -0.329
- glycan array binding signal (z-score) [11]: 1.22
- glycan array binding signal (z-score) [12]: -0.339
- glycan array binding signal (z-score) [13]: -0.277
- glycan array binding signal (z-score) (Man(a1-3)[Man(a1-6)]Man): -0.474
- glycan array binding signal (z-score) [14]: 0.684
- glycan array binding signal (z-score) [15]: -0.188
- glycan array binding signal (z-score) [16]: -0.113
- glycan array binding signal (z-score) [17]: -0.378
- glycan array binding signal (z-score) [18]: -0.351
- glycan array binding signal (z-score) (Man(a1-6)Man): -0.119
- glycan array binding signal (z-score) (Man(b1-4)GlcNAc): -0.406
- glycan array binding signal (z-score) (MurNAc(b1-4)GlcNAc): -0.163
- glycan array binding signal (z-score) (Neu5Ac(a2-3)Gal): -0.52
- glycan array binding signal (z-score) [19]: -0.258
- glycan array binding signal (z-score) [20]: -0.14
- glycan array binding signal (z-score) [21]: -0.258
- glycan array binding signal (z-score) [22]: -0.215
- glycan array binding signal (z-score) [23]: -0.294
- glycan array binding signal (z-score) [24]: -0.338
- glycan array binding signal (z-score) [25]: -0.297
